Experimental data: the supplement of paper PMC12217912
Some of the results follow. Sequences were assembled here from the parent chain. Values near 0.05 are background.

B1: TEV protease; numbered along this chain (parent)
chain: MGESLFKGPRDYNPISSSICHLTNESDGHTTSLYGIGFGPFIITNKHLFRRNNGTLVVQSLHGVFKVKDTTTLQQHLVDGRDMIIIRMPKDFPPFPQKLKFREPQREERICLVTTNFQTKSMSSMVSDTSCTFPSGDGIFWKHWIQTKDGQCGSPLVSTRDGFIVGIHSASNFTNTNNYFTSVPKNFMELLTNQEAQQWVSGWRLNADSVLWGGHKVFMVKPEEPFQPVKEATQL

Variants of: B1
Experiment: raw area under fraction-flipped curve 0-4 h after induction (AUC4h, not background-subtracted), DNA-recorder readout of cleavage of the substrate (dimensionless); higher = more cleavage of the substrate by the protease variant
Settings: temperature: 34 °C; time window: 0-4 h after rhamnose induction
Experimental: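 In vivo DNA recorder in E. coli TOP10(DE3) ΔrhaA at 34 °C. Each TEVp single-site mutant (parent TEVp 0) is paired with a single-site variant of the 7-mer TEVs (canonical ENLYFQ|S). The substrate sits between flexible linkers in a Bxb1-sfGFP-TEVs-SsrA fusion, so cleavage stabilises Bxb1 and speeds flipping of a recombination array, read by NGS. The value is the raw area under the fraction-flipped curve over 0-4 h after rhamnose induction (AUC4h), with ≥20 reads per time point. It is not background-subtracted; inactive controls average about 0.047.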
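Note: Bxb1 expression induced with 0.2% (w/v) L-rhamnose at OD600 near 0.5, cultures sampled hourly, flipped fraction per protease–substrate barcode pair counted by paired-end Illumina sequencing.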

Variant | area with substrate CNLYFQS | area with substrate GNLYFQS | area with substrate INLYFQS | area with substrate SNLYFQS | area with substrate TNLYFQS | area with substrate WNLYFQS | area with substrate NNLYFQS | area with substrate PNLYFQS | area with substrate LNLYFQS | area with substrate MNLYFQS
E195V | 0.0594 | 0.0731 | 0.0532 | 0.0745 | 0.0528 | 0.0562 |  |  |  | 
F95T | 0.0234 |  |  |  |  |  | 0.039 | 0.0624 |  | 
G63K | 0.0607 |  |  |  | 0.0642 |  |  |  | 0.0647 | 0.0292
L77M | 0.0707 |  | 0.0611 | 0.0603 | 0.0536 | 0.057 |  | 0.0394 | 0.0567 | 
Y179I | 0.0714 |  |  |  |  | 0.0472 | 0.06 | 0.0627 |  | 0.0618
E189H | 0.0798 | 0.0662 | 0.0652 | 0.0823 |  | 0.0516 |  | 0.0681 | 0.0672 | 0.0784
F187T | 0.0729 |  |  |  | 0.0473 |  | 0.0717 |  |  | 
G35Q | 0.0632 |  |  |  |  | 0.0437 |  |  | 0.0488 | 
N206I | 0.0701 |  |  |  |  | 0.0639 |  |  | 0.0578 | 
L211S | 0.0757 |  | 0.0801 | 0.0668 |  |  |  |  |  | 0.0578
K221A | 0.0636 | 0.0708 |  |  | 0.0708 |  |  | 0.0472 | 0.0571 | 
A196R | 0.0923 |  |  |  |  |  | 0.0727 | 0.0647 |  | 
T129E | 0.0672 | 0.0866 | 0.0558 |  |  | 0.0566 |  | 0.0588 | 0.0589 | 0.0682
N186K | 0.101 | 0.0688 | 0.0634 |  | 0.0645 |  | 0.0696 |  | 0.0738 | 
R87K | 0.0602 |  | 0.0562 | 0.0473 |  | 0.0569 | 0.0775 |  | 0.0699 | 
N178W | 0.0811 | 0.0853 |  |  |  |  |  |  |  | 
Q151R | 0.0635 | 0.0724 |  | 0.0526 | 0.0635 |  | 0.0542 | 0.057 | 0.0621 | 
I84P | 0.0454 |  |  |  | 0.0504 |  |  |  |  | 
Q234D | 0.066 |  |  | 0.0782 | 0.0473 | 0.0525 | 0.0555 | 0.0686 | 0.0523 | 0.048
E223G | 0.0417 |  |  |  |  |  |  |  |  | 
Y179W | 0.0486 |  | 0.0449 | 0.0614 |  |  |  |  |  | 0.0571
T119P | 0.0732 | 0.0597 | 0.0414 | 0.0651 | 0.081 |  | 0.0607 |  |  | 
P93Q | 0.0742 | 0.0536 | 0.0537 | 0.0728 |  | 0.0539 |  |  | 0.0624 | 

Same assay, conditions: temperature: 34 °C; time window: 0-4 h after rhamnose induction

Variant | area with substrate VNLYFQS | area with substrate HNLYFQS | area with substrate YNLYFQS | area with substrate FNLYFQS | area with substrate QNLYFQS | area with substrate RNLYFQS | area with substrate KNLYFQS
G63K | 0.0502 |  |  |  |  |  | 
L77M | 0.0599 | 0.0508 | 0.038 |  |  |  | 
Y179I | 0.0486 | 0.0496 | 0.0621 | 0.0587 |  |  | 
E189H |  | 0.0672 |  | 0.0351 | 0.0848 |  | 
F187T |  | 0.0791 |  |  |  | 0.0471 | 
G35Q |  | 0.0144 | 0.0373 |  |  |  | 
N206I |  | 0.054 | 0.058 |  |  |  | 
L211S |  |  | 0.07 |  |  |  | 0.061
K221A | 0.0687 | 0.0671 |  |  |  |  | 0.0784
A196R |  | 0.0522 |  |  |  |  | 
T129E |  |  |  |  | 0.061 |  | 
N186K |  | 0.0577 | 0.0529 | 0.0588 | 0.0777 |  | 
R87K | 0.0642 | 0.0661 |  | 0.0491 |  |  | 
Q151R | 0.0613 | 0.0546 |  | 0.057 |  | 0.0763 | 0.063
Q234D | 0.0792 | 0.0638 | 0.0675 |  |  |  | 0.0577
E223G |  | 0.0631 |  |  |  |  | 
Y179W |  | 0.0464 | 0.0657 |  |  |  | 
T119P | 0.0818 | 0.0623 |  | 0.0703 |  | 0.0637 | 0.0885
P93Q |  | 0.0675 |  |  |  |  | 
